Among the data in PubChem BioAssay (NCI) are GI50 and TGI values, retold here.

Molecules are shown by their SMILES.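 1) Cells in 96-well plates. 2) Compound, 48 h, 5 concentrations. 3) Linear interpolation between surrounding doses. 4) Unreached endpoint = highest concentration. GI50 is the concentration that inhibits growth by half. The concentration for full growth arrest is given as TGI.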

The assay concerns NCI-H322M lung. As to the kind of experiment: NCI anticancer screen, dose series, 48 h.
Take `COc1cnc2c(c1)C(=O)c1c-2n(CCCNCCO)c(=O)c2cc(F)ccc12`: the GI50 was 0.821 µM and the TGI came to 3.74 µM.

For the molecule `Cc1ccc(Cl)cc1NC(=O)N/C(N)=N/c1nc2ccccc2s1`, the GI50 was 0.368 µM and the TGI stood at 18.9 µM.

For `COc1ccc2nc(Nc3cccc(NC(=O)c4ccc(CN5CCN(C)CC5)c(C(F)(F)F)c4)c3)ccc2c1`, the GI50 is 6.06 µM and the TGI was found to be 11.4 µM.

Regarding `CC[C@]12C=CCN3CC[C@@]4(c5ccc(OC)cc5N(C)[C@H]4[C@@](O)(C(=O)OC)[C@@H]1OC(=O)CCC[P+](C1CCCCC1)(C1CCCCC1)C1CCCCC1)[C@@H]32`, the GI50 was 5.79 µM and the TGI was 18.6 µM.
